Records with an inconclusive call do not appear. The source holds more than one record for some entries. The other results are left out here. The source may hold further records. Values that stand side by side are repeated measurements across runs, samples, wells, individuals or studies. Additions like (4×) count equal records among those shown.
System: nude mice, HT29 intrarenal xenograft, tumor weight T/C
Assay: NCI In Vivo Anticancer Drug Screen. Data for tumor model HT29;CX-1 Human Adenocarcinoma (MER+) (intrarenal inoculation) in NU/NU Swiss (nude) mice
Details: endpoint: mean tumor weight change, higher = larger tumour
Description: The antitumor activity of compounds was measured in mice bearing transplantable tumors. Survival or tumor size were measured and the results are expressed as the measurement made in the treated group (T) divided by the measurement made in the vehicle treated control group (C). The tumor model used in this assay is HT29;CX-1 Human Adenocarcinoma (MER+) (intrarenal inoculation) in NU/NU Swiss (nude) mice

[1] = dose: 100.0 mg/kg/injection, schedule: Q01DX010 (sc), vehicle: Klucel (hydroxypropylcellulose) (HPC)
[2] = dose: 200.0 mg/kg/injection, schedule: Q01DX010 (sc), vehicle: Klucel (hydroxypropylcellulose) (HPC)
[3] = dose: 2.0 mg/kg/injection, schedule: Q01DX010 (sc), vehicle: saline
[4] = dose: 4.0 mg/kg/injection, schedule: Q01DX010 (sc), vehicle: saline
[5] = dose: 37.5 mg/kg/injection, schedule: Q04DX004 (sc), vehicle: saline with Tween-80
[6] = dose: 5.0 mg/kg/injection, schedule: Q04DX004 (sc), vehicle: water
[7] = dose: 25.0 mg/kg/injection, schedule: Q01DX010 (sc), vehicle: saline

With CN(C)C=O the T/C (dose: 800.0 mg/kg/injection, schedule: Q01DX010 (sc), vehicle: saline) was 43 % of control and 75 % of control and the T/C (dose: 1600.0 mg/kg/injection, schedule: Q01DX010 (sc), vehicle: saline) was 48 % of control and 77 % of control.

For CN(C)N=Nc1cccc(C(N)=O)c1, the T/C (dose: 25.0 mg/kg/injection, schedule: Q04DX004 (sc), vehicle: Klucel (hydroxypropylcellulose) (HPC)) was 72 % of control and 115 % of control and the T/C (dose: 100.0 mg/kg/injection, schedule: Q04DX004 (sc), vehicle: Klucel (hydroxypropylcellulose) (HPC)) was 18 % of control and 102 % of control.

With CC(=O)O[C@H]1C(=O)[C@@]2(C)[C@H]([C@H](OC(=O)c3ccccc3)[C@]3(O)C[C@H](OC(=O)[C@H](O)[C@@H](NC(=O)c4ccccc4)c4ccccc4)C(C)=C1C3(C)C)[C@]1(OC(C)=O)CO[C@@H]1C[C@@H]2O the T/C (dose: 50.0 mg/kg/injection, schedule: Q01DX010 (sc), vehicle: Klucel (hydroxypropylcellulose) (HPC)) was 8 % of control, 38 % of control, 42 % of control, the T/C [1] was 12 % of control, 32 % of control, 43 % of control and the T/C [2] was -6 % of control, 26 % of control, 44 % of control.

For N[C@@H](Cc1ccc(N(CCCl)CCCl)cc1)C(=O)O, the T/C (dose: 1.0 mg/kg/injection, schedule: Q01DX010 (sc), vehicle: saline) was 10 % of control and 83 % of control, the T/C [3] was 27 % of control, 56 % of control, 64 % of control and the T/C [4] was -27 % of control and 3 % of control.

CCC1(O)CC2CN(CCc3c([nH]c4ccccc34)C(C(=O)OC)(c3cc4c(cc3OC)N(C)C3C(O)(C(N)=O)C(O)C5(CC)C=CCN6CCC43C65)C2)C1 (stereo not drawn) (tested in a mixture with another compound) was tested, and the T/C (dose: 3.0 mg/kg/injection, schedule: Q04DX004 (sc), vehicle: water) was 18 % of control, 40 % of control, 75 % of control and the T/C (dose: 6.0 mg/kg/injection, schedule: Q04DX004 (sc), vehicle: water) was -14 % of control, 2 % of control, 45 % of control.

For COc1ccc(CC2C(=O)NC(C)C(=O)N(C)C3C(=O)N(C)C(Cc4ccc(O)c(c4)Oc4ccc(cc4)C3O)C(=O)NC(C)C(=O)NC(C)C(=O)N2C)cc1 (stereo not drawn), the T/C (dose: 0.5 mg/kg/injection, schedule: Q01DX010 (sc), vehicle: saline with Tween-80) was 23 % of control and 58 % of control, the T/C (dose: 1.0 mg/kg/injection, schedule: Q01DX010 (sc), vehicle: saline with Tween-80) was 3 % of control, 33 % of control, 62 % of control and the T/C (dose: 2.0 mg/kg/injection, schedule: Q01DX010 (sc), vehicle: saline with Tween-80) was -47 % of control, 94 % of control, 160 % of control.

With O=C1C(=O)c2ccccc2C(O)=C1CC=C(Cl)Cl the T/C (dose: 200.0 mg/kg/injection, schedule: Q01DX010 (sc), vehicle: water) was 53 % of control and 102 % of control.

For OC(C1CO1)C(O)C1CO1 (stereo not drawn), the T/C [3] was 81 % of control and 159 % of control.

CCCCCCCCCCCCCCCC(=O)OCC1OC(n2ccc(N)nc2=O)C(O)C1O (stereo not drawn) was tested, and the T/C [5] was 38 % of control and 79 % of control.

O=C([CH-]C(=O)C(F)(F)F)c1ccccc1.O=C([CH-]C(=O)C(F)(F)F)c1ccccc1.O=C([CH-]C(=O)C(F)(F)F)c1ccccc1.O=C([CH-]C(=O)C(F)(F)F)c1ccccc1.[Eu+3].c1ccncc1 was tested, and the T/C [2] was 56 % of control, 101 % of control, 115 % of control and the T/C (dose: 400.0 mg/kg/injection, schedule: Q01DX010 (sc), vehicle: Klucel (hydroxypropylcellulose) (HPC)) was 38 % of control, 41 % of control, 71 % of control.

COc1cccc2c1C(=N)c1c(O)c3c(c(O)c1C2=O)C[C@@](O)(C(C)=O)C[C@@H]3OC1CC(N)C(O)C(C)O1 (stereo partly drawn) was tested, and the T/C [6] was 99 % of control and 179 % of control and the T/C (dose: 20.0 mg/kg/injection, schedule: Q04DX004 (sc), vehicle: water) was 8 % of control, 78 % of control, 195 % of control.

In the case of CN1c2c(nc(N)[nH]c2=O)NCC1CCNc1ccc(C(=O)NC(CCC(=O)O)C(=O)O)cc1 (stereo not drawn), the T/C (dose: 200.0 mg/kg/injection, schedule: Q01DX010 (sc), vehicle: saline) is reported as 57 % of control and 107 % of control.

CC1(C)N=C(N)N=C(N)N1c1ccc(CCCCc2ccc(S(=O)(=O)F)cc2Cl)c(Cl)c1 was tested, and the T/C [7] was 30 % of control and 117 % of control.

In the case of COC12C(COC(N)=O)C3=C(C(=O)C(C)=C(N)C3=O)N1CC1C2N1C (stereo not drawn), the T/C (dose: 8.0 mg/kg/injection, schedule: Q01DX010 (sc), vehicle: saline) is reported as -63 % of control and -34 % of control.

For COc1cccc2c1C(=O)c1c(O)c3c(c(O)c1C2=O)C[C@@](O)(C(C)=O)C[C@@H]3OC1CC(N)C(O)C(C)O1 (stereo partly drawn), the T/C [3] was 41 % of control and 201 % of control and the T/C [4] was 11 % of control, 47 % of control, 49 % of control.

In the case of CCNC(=O)OCc1c(COC(=O)NCC)c(-c2ccc(Cl)c(Cl)c2)n2c1CCC2, the T/C [5] is reported as 80 % of control (2×) and 118 % of control.

In the case of COc1ccc(C(N)=O)cc1N=NN(C)C, the T/C (dose: 150.0 mg/kg/injection, schedule: Q04DX004 (sc), vehicle: Klucel (hydroxypropylcellulose) (HPC)) is reported as 18 % of control, 40 % of control, 68 % of control.

In the case of C[PH+](C)C.C[PH+](C)C.[Au], the T/C (dose: 5.0 mg/kg/injection, schedule: Q04DX004 (sc), vehicle: saline) is reported as 12 % of control and 88 % of control and the T/C (dose: 10.0 mg/kg/injection, schedule: Q04DX004 (sc), vehicle: saline) is reported as 18 % of control and 62 % of control.

With CC1CN1C(=O)NCCCCCCNC(=O)N1CC1C (stereo not drawn) the T/C (dose: 20.0 mg/kg/injection, schedule: Q04DX004 (sc), vehicle: Klucel (hydroxypropylcellulose) (HPC)) was 15 % of control and 120 % of control.

BrC1c2cccc3cccc(c23)C1Br (stereo not drawn) was tested, and the T/C (dose: 600.0 mg/kg/injection, schedule: Q04DX004 (sc), vehicle: saline with Tween-80) was 68 % of control and 109 % of control.

In the case of Nc1nc2ccc(NCc3ccc(C(=O)NC(CCC(=O)O)C(=O)O)cc3)cc2c(=O)[nH]1 (stereo not drawn), the T/C (dose: 400.0 mg/kg/injection, schedule: Q04DX004 (sc), vehicle: saline with Tween-80) is reported as 13 % of control and 62 % of control.

O=c1[nH]cc(F)c(=O)[nH]1 was tested, and the T/C (dose: 10.0 mg/kg/injection, schedule: Q01DX010 (sc), vehicle: saline) was 59 % of control and 112 % of control.

O=C1NC2(CCCCC2)C(=O)N1CCN(CCCl)CCCl was tested, and the T/C (dose: 12.0 mg/kg/injection, schedule: Q01DX010 (sc), vehicle: saline) was 66 % of control and 159 % of control.

In the case of O=P1(N(CCCl)CCCl)NCCCO1 (stereo not drawn), the T/C (dose: 12.5 mg/kg/injection, schedule: Q01DX010 (sc), vehicle: saline) is reported as 83 % of control and 265 % of control and the T/C [7] is reported as 53 % of control, 111 % of control, 113 % of control.

C=CCNc1ccc(C)cc1 was tested, and the T/C [1] was 29 % of control and 99 % of control.

CCOC(OCC)C(=O)OCC(=O)[C@]1(O)Cc2c(O)c3c(c(O)c2[C@@H](OC2CC(N)C(O)C(C)O2)C1)C(=O)c1c(OC)cccc1C3=O (stereo partly drawn) was tested, and the T/C (dose: 2.5 mg/kg/injection, schedule: Q04DX004 (sc), vehicle: water) was 22 % of control, 74 % of control, 89 % of control, the T/C [6] was 23 % of control, 66 % of control, 78 % of control and the T/C (dose: 10.0 mg/kg/injection, schedule: Q04DX004 (sc), vehicle: water) was 16 % of control and 51 % of control.

In the case of O=C1c2c(O)ccc(O)c2C(=O)c2c(NCCNCCO)ccc(NCCNCCO)c21, the T/C (dose: 0.5 mg/kg/injection, schedule: Q01DX010 (sc), vehicle: acid diluted with saline) is reported as 55 % of control and 161 % of control, the T/C (dose: 1.0 mg/kg/injection, schedule: Q01DX010 (sc), vehicle: acid diluted with saline) is reported as 46 % of control and 82 % of control and the T/C (dose: 2.0 mg/kg/injection, schedule: Q01DX010 (sc), vehicle: acid diluted with saline) is reported as 17 % of control, 71 % of control, 112 % of control.

For CO[C@@]12[C@H](COC(N)=O)C3=C(C(=O)C(C)=C(N)C3=O)N1C[C@@H]1N[C@@H]12, the T/C (dose: 1.25 mg/kg/injection, schedule: Q04DX004 (sc), vehicle: saline) was 53 % of control and 108 % of control and the T/C (dose: 2.5 mg/kg/injection, schedule: Q04DX004 (sc), vehicle: saline) was -37 % of control and 11 % of control.

COC1=C(N)C(=O)c2nc(-c3nc(C(=O)O)c(C)c(-c4ccc(OC)c(OC)c4O)c3N)ccc2C1=O was tested, and the T/C (dose: 0.25 mg/kg/injection, schedule: Q01DX010 (sc), vehicle: saline) was -50 % of control and 10 % of control.

From PubChem BioAssay AID206 (DTP/NCI, 2004)
